{
  "source": "PubChem BioAssay AID485281",
  "about": "(National Center for Advancing Translational Sciences (NCATS), 2010)",
  "note": "Screen size: about 350,000 compounds; about 260 (0.074%) were called active. Inconclusive results, whose numbers are uncertain, are shown with a selection of clear calls. Calls come from the whole dose curve; as a rule, active = well fitted inhibition curve with a large enough effect; inconclusive = small, poorly fitted or top-dose-only effect; inactive = no such curve, though single readings can be large or run the other way. Where the call is inconclusive, the potency comes from a doubtful curve fit. Potency is the fitted concentration of half-maximal effect; tags give direction and shape of the fitted curve.",
  "data": [
    {"target": "Ferritin light chain (Equus caballus) (UniProt P02791)", "sequence (P02791 whole entry, looked up)": "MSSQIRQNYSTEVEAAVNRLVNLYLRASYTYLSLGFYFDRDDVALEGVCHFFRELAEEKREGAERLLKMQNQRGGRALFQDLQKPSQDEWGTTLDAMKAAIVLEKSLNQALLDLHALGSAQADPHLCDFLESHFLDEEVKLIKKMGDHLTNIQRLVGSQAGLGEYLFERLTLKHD", "test": "qHTS Assay for Identification of Novel General Anesthetics; note: nearly all actives have a fitted effect of over 20% in size", "conditions": "apoferritin/1-aminoanthracene competitive binding, fluorescence; series mostly up to 77.5 µM", "outline": "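Steps: apoferritin (10 uM) was premixed with half-saturated 1-AMA in PBS, compounds were pin-transferred, plates stood 10 min at room temperature, fluorescence was read at 380/535 nm, and curves were fitted with a Hill equation.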", "values": [
      {"smiles": "Cc1ccc(-n2ncc(C(=O)NCC3CCN(C4CCCC4)C3)c2C2CCN(C(=O)OC(C)(C)C)CC2)cc1C", "note": "(centres undefined)", "Potency": "inconclusive: 25.1 µM [inhibitor, partial curve]"},
      {"smiles": "O=C(COc1cccnc1[N+](=O)[O-])c1ccc(Cl)s1", "Potency": "inactive"},
      {"smiles": "COC(=O)c1cc(NC2(c3ccccc3)C(=O)c3ccccc3C2=O)cc(C(=O)OC)c1", "Potency": "inactive"},
      {"smiles": "COC(CSc1ncnc2c1oc1nc3c(cc12)COC(C)(C)C3)OC", "Potency": "inactive"},
      {"smiles": "CC(C)c1ccc(NC(=S)NC2CCN(Cc3ccccc3)CC2)cc1", "Potency": "inconclusive: 28.2 µM [inhibitor, partial curve]"},
      {"smiles": "CN(C)CCNC(=O)c1cc(Sc2ccc(F)cc2)nc2ccccc12", "Potency": "inactive"},
      {"smiles": "Oc1cccc(/C=N/N2CCN(c3ccccn3)CC2)c1", "Potency": "inactive"},
      {"smiles": "O=S(=O)(Nc1ccc2c(c1)nc1n2CCN(Cc2ccccc2)C1)c1ccc(Cl)cc1", "Potency": "inactive"},
      {"smiles": "O=S(=O)(NCc1ccccn1)c1ccc(Br)s1", "Potency": "inconclusive: 28.2 µM [inhibitor, partial curve]"},
      {"smiles": "CCN(CC)CCNC(=O)c1cc2c(-c3ccc(Cl)cc3)nn(C)c2s1", "Potency": "inactive"},
      {"smiles": "Cc1cc(C)cc(Nc2cc(C)nc3nc(-c4ccco4)nn23)c1", "Potency": "inconclusive: 3.98 µM [inhibitor, partial curve]"},
      {"smiles": "COc1cccc(CNC(=O)c2nnn(CC(=O)Nc3ccc(Br)cc3)c2N)c1", "Potency": "inconclusive: 2.51 µM [inhibitor, full curve]"},
      {"smiles": "O=C(CSc1n[nH]c(-c2ccccc2O)n1)N1CCCc2ccccc21", "Potency": "inconclusive: 22.4 µM [inhibitor, partial curve]"},
      {"smiles": "COc1ccc(NC(=O)c2cccc(N3C(=O)C4C5C=CC(C6CC56)C4C3=O)c2)c(OC)c1", "note": "(centres undefined)", "Potency": "inconclusive: 15.8 µM [inhibitor, partial curve]"},
      {"smiles": "CC(=O)Nc1ccc(S(=O)(=O)NC2(C(F)(F)F)C(=O)Nc3c2c(=O)[nH]c(=O)n3Cc2cccnc2)cc1", "note": "(centres undefined)", "Potency": "inactive"},
      {"smiles": "CN(C)CCOc1ccc(C(C)(C)c2ccccc2)cc1", "Potency": "inactive"},
      {"smiles": "CCc1ccc(NC(=O)NC(C)c2ccc3c(c2)OCO3)cc1", "note": "(centres undefined)", "Potency": "inconclusive: 20 µM [inhibitor, partial curve]"},
      {"smiles": "NS(=O)(=O)c1ccc(NC(=O)Cc2c(F)cccc2Cl)cc1", "Potency": "inconclusive: 25.1 µM [inhibitor, partial curve]"},
      {"smiles": "C=CCNC(=S)Nc1cc(C)ccn1", "Potency": "inconclusive: 35.5 µM [inhibitor, single point]"},
      {"smiles": "Cc1ccccc1CNC(=O)c1ccc2[nH]c(C)c(C)c2c1", "Potency": "inconclusive: 3.16 µM [inhibitor, full curve]"},
      {"smiles": "Cc1cc(Cl)nc(SCC(=O)c2ccccc2)n1", "Potency": "inconclusive: 25.1 µM [inhibitor, partial curve]"},
      {"smiles": "Cc1cccc(N2CCN(S(=O)(=O)c3c(C(=O)N4CCC(C)CC4)c(C)n(C)c3C)CC2)c1C", "Potency": "inconclusive: 50.1 µM [inhibitor, single point]"},
      {"smiles": "CCCCOP(=O)(c1ccc(N(C)C)cc1)C(Nc1ccccc1)c1ccccc1", "note": "(centres undefined)", "Potency": "inactive"},
      {"smiles": "CCOC(=O)C1(CCCc2ccccc2)CCN(Cc2cnc(C)s2)CC1", "Potency": "inactive"},
      {"smiles": "CN(Cc1cccc2cnccc12)C(=O)c1cc(COc2ccc(F)cc2F)on1", "Potency": "inconclusive: 35.5 µM [inhibitor, partial curve]"},
      {"smiles": "CCCc1cnc2c(c1SCC(=O)Nc1ccccc1F)c(=O)n(C)c(=O)n2C", "Potency": "inactive"},
      {"smiles": "O=C(COC(=O)C1CC(=O)N(c2ccc3c(c2)OCCO3)C1)NC1CCCc2ccccc21", "note": "(centres undefined)", "Potency": "inconclusive: 31.6 µM [inhibitor, partial curve]"},
      {"smiles": "Cc1ccc(S(=O)(=O)NNC(=O)c2cnn(-c3ccccc3)c2-n2cccc2)cc1", "Potency": "inconclusive: 35.5 µM [inhibitor, partial curve]"},
      {"smiles": "CSc1ccc(S(=O)(=O)Nc2ccc3c(c2)NC(=O)CC3)cc1", "Potency": "inconclusive: 35.5 µM [inhibitor, single point]"},
      {"smiles": "Cn1c(N)c(C#N)c2c(c1=S)COC(C)(C)C2", "Potency": "inconclusive: 28.2 µM [inhibitor, single point]"},
      {"smiles": "COc1cc(/C=C(/NC(=O)c2ccccc2)C(=O)Nc2cccc(O)c2)c([N+](=O)[O-])cc1OC", "Potency": "inconclusive: 20 µM [inhibitor, partial curve]"},
      {"smiles": "CC(C)(NO)/C(=N/O)c1ccc(Br)cc1", "Potency": "inconclusive: 35.5 µM [inhibitor, single point]"},
      {"smiles": "C=CCCCCCCCCC(=O)NN", "Potency": "inconclusive: 35.5 µM [inhibitor, partial curve]"},
      {"smiles": "CN(C)S(=O)(=O)c1ccc(C(=O)Nc2ccc(S(=O)(=O)NC3=NCCCCC3)cc2)cc1", "Potency": "inconclusive: 50.1 µM [inhibitor, single point]"},
      {"smiles": "COc1ccc(C2=NOC(CN3C(=O)c4ccccc4S3(=O)=O)C2)cc1", "note": "(centres undefined)", "Potency": "inconclusive: 56.2 µM [inhibitor, partial curve]"},
      {"smiles": "CCS(=O)(=O)NCCc1cc2ccc(C)cc2[nH]c1=O", "Potency": "inactive"},
      {"smiles": "Cc1ccc(C(C(=O)NC2CCCCC2)N(Cc2cccnc2)C(=O)C2COc3ccccc3O2)o1", "note": "(centres undefined)", "Potency": "inconclusive: 35.5 µM [inhibitor, partial curve]"},
      {"smiles": "CCOc1ccc2c3c(c(=O)oc2c1OCC)CCCC3", "Potency": "inconclusive: 35.5 µM [inhibitor, partial curve]"},
      {"smiles": "CCOC(=O)c1ccn(-c2nc(-c3cccc(OC)c3)cc(C(F)(F)F)n2)n1", "Potency": "inconclusive: 3.55 µM [inhibitor, full curve, poor fit]"},
      {"smiles": "COc1cccc(CC(=O)N2CCN(c3ccccc3[N+](=O)[O-])CC2)c1", "Potency": "inconclusive: 22.4 µM [inhibitor, partial curve]"},
      {"smiles": "CC(C)c1ccccc1OCCNC(=S)NC(=O)c1cccnc1", "Potency": "inconclusive: 39.8 µM [inhibitor, partial curve]"},
      {"smiles": "COc1cc([N+](=O)[O-])ccc1NC(=O)Cc1ccc(C)cc1", "Potency": "inconclusive: 31.6 µM [inhibitor, partial curve]"},
      {"smiles": "COc1cc2c(cc1OC)C(=S)NC1(CCCC1)C2", "Potency": "inconclusive: 31.6 µM [inhibitor, single point]"},
      {"smiles": "CCN(C(=O)Cc1ccc(Br)cc1)C1CCCCC1", "Potency": "inconclusive: 31.6 µM [inhibitor, partial curve]"}
    ]}
  ]
}
